# Measured values: ChEMBL document CHEMBL4888484, “Replenishing the malaria drug discovery pipeline: Screening and hit evaluation of the MMV Hit Generation Library 1 (HGL1) against asexual blood stage Plasmodium falciparum ,using a nano luciferase reporter read-out” (2022)
# Among all 150,000 compounds or so, about 540 (0.36%) showed an effect of 50% or more. The list shows a part of the results.
# Test system: Plasmodium falciparum
# Assay: Primary screen in NF54 nanoGlo assay, in single point, at 2uM, 72h; a lower Z score goes with more inhibition
# Type: functional, Erythrocyte
# Conditions: timepoint 72 hour
SMILES,% Inhibition [%],Z score
O=C(Nc1cc(F)cc(Cl)c1)C(=O)N1C2CCC1CC(O)C2 (centres undefined),-9,1.4
COCc1cccc(N[C@@H](C)c2nc3ccccc3o2)c1,-8,1.19
Cc1noc(C)c1COc1ccccc1CN1CCC2(CC[C@@H]2O)CC1,-5,0.6
Cc1ccc(NC(=O)N2CC[S+]([O-])CC2)cc1,-13,2.09
Cc1cccc(CN2CCC[C@@]3(CCN(C(=O)c4[nH]nc5c4CCCC5)C3)C2)c1,-12,1.73
Cc1cc(C#N)c(N2CC[C@@]3(CCCN(CC4CC4)C3=O)C2)nc1C,-7,0.84
COc1ccc(CCN[C@H]2CCc3ccccc3NC2=O)cc1,-5,0.8
CCCc1cc(Cn2cnc(-c3ccccc3)c2-c2ccc(CO)o2)on1,6,-0.91
CCn1cc(OCc2cccc(NC(C)=O)c2)cn1,-5,0.68
C#CCN(CC=C)C(=O)CC(=O)Nc1ccccc1C,0,0.03
COC[C@H](C)S(=O)(=O)NC1CCC(C)(C)CC1,8,-0.85
CS(=O)(=O)CCN1CCOc2ccc(Br)cc2C1,-14,2.71
COc1nccc(N2CCC[C@@](CO)(CC3CC3)C2)c1C#N,-26,2.28
Nc1n[nH]c2c(Cl)c3nnc(-c4ccccc4)n3c(Cl)c12,37,-4.76
FC(F)(F)Cn1ncnc1CCCn1cccn1,-8,1.43
CC(C)[C@H](CNc1ccncc1F)N(C)C,2,-0.24
O=C(Nc1ccnn1C1CCN(C2CCCC2)CC1)c1ccccc1,-3,0.56
O=C(Nc1cc(F)ccc1O)c1ccccc1NCc1cccnc1,6,-1
CC(CC(O)c1ccccc1)NC1CCCC1NC(=O)OC(C)(C)C (centres undefined),-10,0.94
COc1ncccc1CNC(=O)c1ccc(-c2cccc(Br)c2)nc1C,-36,4.25
COc1ccc([C@H](C)NC(=O)c2ccc3ncnc(N4CCCCC4)c3c2)cc1,-15,1.97
Cc1ccnc(NC(=O)[C@H](C)c2cccnc2)n1,-8,0.97

SMILES,% Inhibition [%],Z score
COC(=O)[C@H]1CC12CCN(S(C)(=O)=O)CC2,-15,1.8
Cc1nn(Cc2sncc2Br)c(=O)s1,-33,3.87
COC1CC2C(=O)N(C(c3ccccc3)C(C)C)C(=O)N2C1 (centres undefined),-6,0.83
Nc1c(NC(=O)NC2CCCCC2)c(-c2ccccc2)nn1-c1ccccc1F,-3,0.5
Cc1nc2n(c1C(=O)N(C)C)CCN(C(=O)c1cc(=O)[nH]c3ccccc13)C2,-4,0.64
CCOc1ncccc1-c1cc(C)c(C#N)c(C)n1,-2,0.21
CCCCNC(=O)C(=O)NCc1ccc(C)cc1,4,-0.57
CCn1cc(OC(=O)c2ccncc2Cl)cn1,5,-0.71
Cc1nnc(N2CCN(c3ccccn3)CC2)c(C#N)c1C,-23,2.07
CC1CN(C(=O)c2cc(Cl)ccc2OCc2ccccc2)CC(C)O1 (centres undefined),-9,1
CC1CCc2ccccc2C1NC(=O)CCC(=O)N1CCC(O)CC1 (centres undefined),4,-0.56
O=C(c1cccc(F)c1F)N(CC1CCN(Cc2ccccc2F)CC1)C[C@H]1CCCO1,-15,2.17
C[C@@H](CC1CCCCC1)NCCCC(=O)N(C)C,-11,1.94
Cc1[nH]ccc1C(=O)NCc1nccc(C(F)(F)F)n1,-10,1.31
Cc1cc2nccc(NC(=O)NCc3cc(C4CC4)no3)n2n1,-4,0.43
Cc1ccc(NC(=O)CN2CCN(C3CCCCC3)C(=O)C2=O)cc1C,-4,0.61
CN(C)c1ccccc1C(=O)NC[C@@H](c1ccncc1)N1CCOCC1,6,-0.95
CC(C)=CCn1c(-c2ccccc2Cl)cn2cc(C(=O)N3CCCC3)nc2c1=O,-16,1.91
CC[C@H](C)n1ncc(NC(=O)N2CCN(c3cccs3)CC2)c1C,-14,1.45
CCC(O)CN(Cc1cccc(Cl)c1)CC1CC(c2ccccc2)=NO1 (centres undefined),-3,0.34
COc1ccc(-c2nnc3n2CCOC3)c(OC)c1,2,-0.32
O=C(Nc1ccc(Cl)c(Cl)c1)N1CC(N2C(=O)C3CC=CCC3C2=O)C1 (centres undefined),-5,0.61

SMILES,% Inhibition [%],Z score
COC(=O)C[C@H](N)c1cccc(Cl)c1,11,-1.75
COc1ccc2cc(-c3nc(CCN(C)C(=O)c4cccc(Cl)c4)no3)[nH]c2c1,-9,1.75
COCCCN(C)C(=O)N1Cc2ccc(Br)cc2C1,-14,1.95
Cn1cc(CC(=O)Nc2ccccc2Nc2c(F)cccc2F)cn1,-9,0.8
O=C(Nc1cccc2c1CCCC2)[C@@H]1CCCO1,-2,0.19
COc1ccc2cc1Oc1cccc(c1)CO[C@H]1CCN(C(=O)CCn3nccc3C)C[C@H]1NC(=O)CC2,-21,2.71
Cc1ccc(CNC(=O)c2cccc3[nH]cc(CN4CCCC4)c23)o1,7,-1.11
CC(C)c1nnc(COc2ccc([C@H]3CCOC3)cc2)o1,-8,1.25
N#Cc1cccc(-c2nnc(NS(=O)(=O)c3cc(Cl)cc4c3OCC4)o2)c1,24,-2.71
Cc1ccccc1OC1CN(C(=O)NC2(C3CC3)CC2)C1,-19,2.6
CC(C)c1ccccc1OC[C@@H](O)Cn1nccc1-c1cccnc1,-11,2.02
Cc1cc(C)c(C(=O)O)cc1NC(=O)[C@@H]1CCCN1C(=O)NC(C)C,5,-0.54
COc1ccnc(NC2CCCCCC2)n1,3,-0.22
CCCn1nccc1C(=O)N1CCn2nc(CN3CCCCCC3)cc2C1,-5,0.69
O=C(N[C@@]1(CO)CCOC1)c1cccc(C(F)F)c1,4,-0.59
CCCn1c(C)nnc1CNC1(c2cccc(Cl)c2)CC1,-7,0.62
COc1ccccc1C=CCN(C)C1CCCCC1S(C)(=O)=O (centres undefined),-8,0.75
COc1nc(C)cc(C)c1CNC(=O)NC1CCC2(CC1)CC2(F)F (centres undefined),-2,0.29
CCc1nncn1CCNC(=O)c1cc(F)cc(Cl)c1O,29,-3.27
Cc1nc(CC(=O)NCc2snnc2C(C)C)cs1,-12,1.61
Cc1cc(Cl)ccc1CN1CCN2C(=O)NC[C@H]2C1,16,-1.6
O=C(C1CCOCC1)N1Cc2ccccc2C1,-13,1.63

SMILES,% Inhibition [%],Z score
Cc1cccc(S(=O)(=O)CCCOc2cc(C)c(C)nn2)c1,-17,1.42
Cc1nc2ccccc2c(C)c1C(=O)OCC(=O)Nc1ccc(S(=O)(=O)C(F)F)cc1,-1,0.06
COc1ccc(C)cc1-c1nc(C2CCOCC2)n[nH]1,-1,0.25
C1CCC2(CC1)CCN(c1nnc([C@@H]3CCCO3)n1CC1CCOC1)C2 (some centres undefined),10,-1.13
COc1ccc(-c2ccnc(N[C@H]3CCN(C4CCOCC4)C3=O)n2)cc1,-13,2.48
CCNC(=O)[C@H](C)NC(=O)c1cc(-c2cc(C)oc2C)nc2onc(C)c12,0,-0.06
O=C1CC(CC(=O)N2CCOCC2CC2CCC2)CO1 (centres undefined),-3,0.52
O=C(Cc1ccc(F)cc1)N1CCc2nc(N3CCN(c4ccccc4)CC3)nc(N3CCCCC3)c2C1,-4,0.67
Cc1n[nH]cc1CNC(=O)N[C@@H]1C[C@H]1c1cccc(F)c1,1,-0.06
CC(C)C(=O)N[C@@H]1c2ccccc2C2(CCNCC2)[C@H]1OCc1cccnc1,3,-0.55
O=C(CCc1ccsc1)N1CCOC[C@@H](CO)C1,9,-1.11
CCn1ncc(C(=O)NCC(C)(C)N2CCOCC2)n1,-12,1.65
CC[C@@H](C(=O)Nc1cccc(C)c1C)n1nc(-c2ccc(OC)cc2)c2c(C)onc2c1=O,-16,1.98
CC(C)C[C@@H]1N[C@H](C(=O)NCc2ccccn2)Cc2c[nH]c3cccc1c23,4,-0.7
CCc1nc(C)c(CN[C@@H](C)c2nc(C(C)C)no2)[nH]1,-12,2.5
CC(=O)N(C)C1CCN(CC(=O)NCc2cccs2)CC1,-7,1.03
CCN(Cc1ccncc1)c1ncnc2scc(-c3ccc(C)cc3)c12,2,-0.34
COc1cccc(CCc2ccccc2C(=O)N2CCC[C@@](O)(CO)C2)c1,-5,0.61
COc1ccc(-c2noc(Cn3nc(-c4ccc(C)c(C)c4)c4ccccc4c3=O)n2)cc1OC,-9,1.49
Cc1nnc2cc(N3CCN(Cc4csc5c4CCCC5)CC3)cnn12,3,-0.37
NC(=O)CO[C@@H]1CO[C@H]2[C@@H]1OC[C@@H]2NS(=O)(=O)c1cccs1,-11,1.71
